Laboratory results published in PubChem BioAssay AID624417 (National Center for Advancing Translational Sciences (NCATS), 2012).
The campaign covered roughly 410,000 compounds. About 6,400 (1.6%) were called active. The inconclusive results got no clear call from the source; some entries with a clear call stand among them for comparison. Calls come from the whole dose curve; as a rule, active = well fitted inhibition curve with a large enough effect; inconclusive = small, poorly fitted or top-dose-only effect; inactive = no such curve, though single readings can be large or run the other way. A potency beside an inconclusive call is a rough fit, not a confirmed value.

Each compound was assayed against Glucagon-like peptide 1 receptor (Homo sapiens) (UniProt P43220) (assay: qHTS of GLP-1 Receptor Inverse Agonists (Inhibition Mode)). Details: HEK293 GLP-1R CRE-luciferase, luminescence, 24 h, GLP-1R form is constitutively active; activity change, negative = inhibition: at 38.3 µM (top of the series) unless noted.
Chain of UniProt P43220 (P43220 whole entry, looked up): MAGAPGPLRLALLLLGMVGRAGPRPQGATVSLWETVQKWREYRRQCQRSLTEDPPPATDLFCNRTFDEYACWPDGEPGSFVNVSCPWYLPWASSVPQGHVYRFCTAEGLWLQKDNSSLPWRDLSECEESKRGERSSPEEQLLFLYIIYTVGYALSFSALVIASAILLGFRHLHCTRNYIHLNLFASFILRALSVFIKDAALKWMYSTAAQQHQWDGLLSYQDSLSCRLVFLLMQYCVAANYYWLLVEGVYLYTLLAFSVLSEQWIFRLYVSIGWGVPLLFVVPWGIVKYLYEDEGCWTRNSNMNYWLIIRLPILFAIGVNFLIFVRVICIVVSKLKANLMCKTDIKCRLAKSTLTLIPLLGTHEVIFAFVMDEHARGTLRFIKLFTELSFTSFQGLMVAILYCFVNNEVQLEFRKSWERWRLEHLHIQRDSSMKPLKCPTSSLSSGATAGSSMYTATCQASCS
In short: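 Using stably transfected HEK293 (constitutively active GLP-1R, cAMP-luciferase reporter), compounds were incubated 24 hr and luciferase measured by luminescence.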
% is set by controls: 0 for no effect and ±100 for the full control effect; potency is the fitted concentration of half-maximal effect; tags give direction and shape of the fitted curve.
Note: nearly all actives have a fitted effect of over 55% in size.

Potency, inconclusive:
CN(Cc1ccccn1)C(=O)c1cc(COc2ccc(F)cc2Cl)on1 28.2 µM [inhibitor, single point], Cc1ccc(Nc2c(-c3ccc(C)s3)nc3ncccn23)cc1 25.1 µM [inhibitor, single point], CCOc1ccc(OCC)c(NC(=O)CN2CCC(NC(=O)c3cccc(F)c3)CC2)c1 31.6 µM [inhibitor, single point], O=C(CN1C(=O)NC2(CCCCCCC2)C1=O)Nc1ccc(Br)cc1 28.2 µM [inhibitor, single point], CC(OC(=O)/C(C#N)=C/c1ccc(N(C)C)cc1)C(=O)N(C)c1ccccc1 (stereo not given) 10 µM [inhibitor, partial curve], CCOc1ccc(NC(=O)c2sccc2-n2cccc2)cc1 20 µM [inhibitor, single point], Cc1oc2c(c1C(=O)Nc1cccc3ccccc13)CCCC2 28.2 µM [inhibitor, single point], CN1CCCC1CCNc1ccc2oc3ccccc3c(=O)c2c1 (stereo not given) 28.2 µM [inhibitor, single point], Cc1cc(OCCn2cc(/C(N)=N/O)c3ccccc32)ccc1Cl 14.1 µM [inhibitor, single point], Cc1ccc(S(=O)(=O)C2(C(=O)N3CCN(c4cc(C)ccc4C)CC3)CC2)cc1 10 µM [inhibitor, partial curve, poor fit], Cc1cc2nc(-c3ccc(SCc4ccccn4)nc3)[nH]c2cc1C 11.2 µM [inhibitor, partial curve, poor fit], Cc1c(Cl)c(C(F)(F)F)nn1CC(=O)NCc1ccco1 28.2 µM [inhibitor, single point], CC(=O)N1CCc2c(sc3c2c(=O)n(-c2cc(Cl)ccc2C)c(=O)n3Cc2ccccc2F)C1 28.2 µM [inhibitor, single point], COc1ccc(S(=O)(=O)/N=C2\C=C(Nc3ccc(O)cc3)C(=O)c3ccccc32)cc1 11.2 µM [inhibitor, partial curve, poor fit], Cc1ccnc(NC(=O)CCC(=O)N(CC(=O)NCc2ccccc2)Cc2ccc(F)cc2)c1 3.55 µM [inhibitor, single point], CC(C)[C@@H]1CC[C@@H](C)C[C@H]1OC(=O)C[n+]1cc(-c2ccc(Cl)cc2)n2c1CCCCC2 10 µM [inhibitor, single point], O=C(CSc1ccccn1)N1CCN(c2ncc(C(F)(F)F)cc2Cl)CC1 11.2 µM [inhibitor, single point], CCN(CC)CCNC(=O)c1ccc(NC(=O)c2cccc(S(=O)(=O)N3CCCCCC3)c2)cc1 28.2 µM [inhibitor, single point], Clc1cccc(Cl)c1CN1CCN(c2ncccn2)CC1 14.1 µM [inhibitor, single point], CC(C)C(=O)Nc1ccc2nn(-c3ccccc3)nc2c1 11.2 µM [inhibitor, single point], O=C(NC1CCN(Cc2ccccc2)CC1)c1cccc(S(=O)(=O)Nc2ccc(SC(F)F)cc2)c1 8.91 µM [inhibitor, partial curve, poor fit], CCc1ccccc1NC(=O)[C@@H](c1ccccc1)N1Cc2ccccc2C1=O 11.2 µM [inhibitor, single point], CN(c1ccccc1C(=O)NCc1ccccc1Cl)S(=O)(=O)c1ccccc1 2.51 µM [inhibitor, partial curve, poor fit], CN(CC(=O)Nc1cccc(F)c1)C(=O)c1cccc(S(=O)(=O)N2CCN(Cc3ccccc3)CC2)c1 28.2 µM [inhibitor, single point], CCn1c(CN2CCCCCC2=O)nnc1SCc1cnc(-c2ccccc2)s1 0.501 µM [inhibitor, full curve, poor fit], O=C(COC(=O)CSc1ccc(F)cc1)NCc1ccco1 31.6 µM [inhibitor, single point], CC1(C(=O)Nc2cnc3ccccc3c2)CCN1Cc1ccc(OC(F)(F)F)cc1 (stereo not given) 11.2 µM [inhibitor, single point], COc1ccc([C@H]2C[C@H](n3cc(-c4ccc(F)cc4)nn3)[C@@H](O)CN2CC2CCCCC2)cc1 28.2 µM [inhibitor, single point], COc1ccc(-c2csc3ncnc(N4CCN(c5cccc(C)c5C)CC4)c23)cc1 28.2 µM [inhibitor, single point], S=C(NCCc1ccccc1)N1CCc2ccccc2C1 28.2 µM [inhibitor, single point], O=C(c1cc(COc2ccc(F)c(F)c2)on1)N1CCN(C2CCCCC2)C(=O)C1 28.2 µM [inhibitor, single point], Cc1cc2cc(CNC(=S)Nc3ccc(OC(F)(F)F)cc3)ccc2n1C 15.8 µM [inhibitor, single point]

Potency, active:
O=c1c2cc(NC(=S)NCCCN3CCC(Cc4ccccc4)CC3)ccc2nc2n1CCCCC2 2.24 µM, CC(C)CCNC(=O)C(c1ccc(O)cc1)N(Cc1cccs1)C(=O)C1COc2ccccc2O1 (stereo not given) 11.2 µM

Activity change, negative = inhibition, inactive:
Oc1ccc(-c2csc(Nc3ncccn3)n2)cc1 -17.8%, O=Cc1cccc(OCc2cn(CC(=O)c3ccc(O)cc3)nn2)c1 12.4%, CC(=O)c1ccc(N2CCN(C(=O)CCc3nnc4n(C)c(=O)c5sccc5n34)CC2)cc1 22.4%, Cc1ccc(NS(=O)(=O)c2cc3[nH]c(=O)c(=O)[nH]c3cc2C)cc1N(C)C 11.6%, CC(C)(C)OC(=O)N1CCC(c2c(C(=O)N3CCCCC3)cnn2-c2cccc(F)c2)CC1 2.45%, COc1ccc(/C=C/C(=O)NC(=S)N2CCN(c3ccccc3OC)CC2)cc1 -8.85%
